# Some of the results follow.
# B1: Thrombomodulin (Mus musculus) (protein)
# chain: ALAKLQPTGSQCVEHECFALFQGPATFLDASQACQRLQGHLMTVRSSVAADVISLLLSQSSMDLGPWIGLQLPQGCDDPVHLGPLRGFQWVTGDNHTSYSRWARPNDQTAPLCGPLCVTVSTATEAAPGEPAWEEKPCETETQGFLCEFYFTASC
# Assays:
# Test in all cases: glycan array binding signal (z-score within array); higher = stronger binding
# Conditions in all cases: glycan notation: IUPAC condensed, linker removed
# [1] = biological target: Neu5Ac(a2-3)Gal(b1-4)GlcNAc(b1-6)GalNAc
# Procedure, shortened: (§1)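 The Consortium for Functional Glycomics database supplied 3228 glycan arrays, of which those lacking an available protein sequence were dropped. The binding signal, a within-array Z-score, was averaged across arrays of the same protein sequence and across linkers. Negative scores can be read as non-binding.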
# [2] = biological target: Neu5Ac(a2-3)Gal(b1-4)GlcNAc(b1-6)[Gal(b1-3)]GalNAc
# Procedure, shortened: as §1
# [3] = biological target: Neu5Ac(a2-3)Gal(b1-4)GlcNAc(b1-6)[Neu5Ac(a2-3)Gal(b1-3)]GalNAc
# Procedure, shortened: as §1
# [4] = biological target: Neu5Ac(a2-3)Gal(b1-4)GlcNAc6S
# Procedure, shortened: as §1
# [5] = biological target: Neu5Ac(a2-3)Gal(b1-4)[Fuc(a1-3)]GlcNAc
# Procedure, shortened: as §1
# [6] = biological target: Neu5Ac(a2-3)Gal(b1-4)[Fuc(a1-3)]GlcNAc(b1-2)Man
# Procedure, shortened: as §1
# [7] = biological target: Neu5Ac(a2-3)Gal(b1-4)[Fuc(a1-3)]GlcNAc(b1-3)Gal
# Procedure, shortened: as §1
# [8] = biological target: Neu5Ac(a2-3)Gal(b1-4)[Fuc(a1-3)]GlcNAc(b1-3)Gal(b1-4)GlcNAc
# Procedure, shortened: as §1
# [9] = biological target: Neu5Ac(a2-3)Gal(b1-4)[Fuc(a1-3)]GlcNAc(b1-3)Gal(b1-4)[Fuc(a1-3)]GlcNAc(b1-3)Gal(b1-4)[Fuc(a1-3)]GlcNAc
# Procedure, shortened: as §1
# [10] = biological target: Neu5Ac(a2-3)Gal(b1-4)[Fuc(a1-3)]GlcNAc(b1-3)GalNAc
# Procedure, shortened: as §1
# [11] = biological target: Neu5Ac(a2-3)Gal(b1-4)[Fuc(a1-3)]GlcNAc(b1-6)[Gal(b1-3)]GalNAc
# Procedure, shortened: as §1
# [12] = biological target: Neu5Ac(a2-3)Gal(b1-4)[Fuc(a1-3)]GlcNAc(b1-6)[Neu5Ac(a2-3)Gal(b1-3)]GalNAc
# Procedure, shortened: as §1
# [13] = biological target: Neu5Ac(a2-3)Gal(b1-4)[Fuc(a1-3)]GlcNAc6S
# Procedure, shortened: as §1
# [14] = biological target: Neu5Ac(a2-3)Gal6S(b1-4)GlcNAc
# Procedure, shortened: as §1
# [15] = biological target: Neu5Ac(a2-3)Gal6S(b1-4)[Fuc(a1-3)]GlcNAc
# Procedure, shortened: as §1
# [16] = biological target: Neu5Ac(a2-3)GalNAc
# Procedure, shortened: as §1
# [17] = biological target: Neu5Ac(a2-3)GalNAc(b1-4)GlcNAc
# Procedure, shortened: as §1
# [18] = biological target: Neu5Ac(a2-3)[GalNAc(b1-4)]Gal(b1-4)Glc
# Procedure, shortened: as §1
# [19] = biological target: Neu5Ac(a2-3)[GalNAc(b1-4)]Gal(b1-4)GlcNAc
# Procedure, shortened: as §1
# [20] = biological target: Neu5Ac(a2-3)[GalNAc(b1-4)]Gal(b1-4)GlcNAc(b1-3)GalNAc
# Procedure, shortened: as §1
# [21] = biological target: Neu5Ac(a2-3)[Neu5Ac(a2-6)]GalNAc
# Procedure, shortened: as §1
# [22] = biological target: Neu5Ac(a2-6)Gal
# Procedure, shortened: as §1
# [23] = biological target: Neu5Ac(a2-6)Gal(b1-3)GlcNAc(b1-3)[Gal(b1-4)GlcNAc(b1-6)]Gal(b1-4)Glc
# Procedure, shortened: as §1
# [24] = biological target: Neu5Ac(a2-6)Gal(b1-4)Glc
# Procedure, shortened: as §1
# [25] = biological target: Neu5Ac(a2-6)Gal(b1-4)GlcNAc
# Procedure, shortened: as §1
# [26] = biological target: Neu5Ac(a2-6)Gal(b1-4)GlcNAc(b1-2)Man
# Procedure, shortened: as §1
# [27] = biological target: Neu5Ac(a2-6)Gal(b1-4)GlcNAc(b1-2)Man(a1-3)Man(b1-4)GlcNAc(b1-4)GlcNAc
# Procedure, shortened: as §1
# [28] = biological target: Neu5Ac(a2-6)Gal(b1-4)GlcNAc(b1-2)Man(a1-3)[Gal(b1-4)GlcNAc(b1-2)Man(a1-6)]Man(b1-4)GlcNAc(b1-4)GlcNAc
# Procedure, shortened: as §1
# [29] = biological target: Neu5Ac(a2-6)Gal(b1-4)GlcNAc(b1-2)Man(a1-3)[GlcNAc(b1-2)Man(a1-6)]Man(b1-4)GlcNAc(b1-4)GlcNAc
# Procedure, shortened: as §1
# [30] = biological target: Neu5Ac(a2-6)Gal(b1-4)GlcNAc(b1-2)Man(a1-3)[GlcNAc(b1-4)][Neu5Ac(a2-6)Gal(b1-4)GlcNAc(b1-2)Man(a1-6)]Man(b1-4)GlcNAc(b1-4)GlcNAc
# Procedure, shortened: as §1
# [31] = biological target: Neu5Ac(a2-6)Gal(b1-4)GlcNAc(b1-2)Man(a1-3)[Man(a1-6)]Man(b1-4)GlcNAc(b1-4)GlcNAc
# Procedure, shortened: as §1
# [32] = biological target: Neu5Ac(a2-6)Gal(b1-4)GlcNAc(b1-2)Man(a1-3)[Neu5Ac(a2-3)Gal(b1-4)GlcNAc(b1-2)Man(a1-6)]Man(b1-4)GlcNAc(b1-4)GlcNAc
# Procedure, shortened: as §1
# [33] = biological target: Neu5Ac(a2-6)Gal(b1-4)GlcNAc(b1-2)Man(a1-3)[Neu5Ac(a2-6)Gal(b1-4)GlcNAc(b1-2)Man(a1-6)]Man(b1-4)GlcNAc(b1-4)GlcNAc
# Procedure, shortened: as §1
# [34] = biological target: Neu5Ac(a2-6)Gal(b1-4)GlcNAc(b1-2)Man(a1-3)[Neu5Ac(a2-6)Gal(b1-4)GlcNAc(b1-2)Man(a1-6)]Man(b1-4)GlcNAc(b1-4)[Fuc(a1-6)]GlcNAc
# Procedure, shortened: as §1
# [35] = biological target: Neu5Ac(a2-6)Gal(b1-4)GlcNAc(b1-2)Man(a1-6)Man(b1-4)GlcNAc(b1-4)GlcNAc
# Procedure, shortened: as §1
# [36] = biological target: Neu5Ac(a2-6)Gal(b1-4)GlcNAc(b1-2)Man(a1-6)[Gal(b1-4)GlcNAc(b1-2)Man(a1-3)]Man(b1-4)GlcNAc(b1-4)GlcNAc
# Procedure, shortened: as §1
# [37] = biological target: Neu5Ac(a2-6)Gal(b1-4)GlcNAc(b1-2)Man(a1-6)[GlcNAc(b1-2)Man(a1-3)]Man(b1-4)GlcNAc(b1-4)GlcNAc
# Procedure, shortened: as §1
# [38] = biological target: Neu5Ac(a2-6)Gal(b1-4)GlcNAc(b1-2)Man(a1-6)[Man(a1-3)]Man(b1-4)GlcNAc(b1-4)GlcNAc
# Procedure, shortened: as §1
# [39] = biological target: Neu5Ac(a2-6)Gal(b1-4)GlcNAc(b1-2)[Neu5Ac(a2-6)Gal(b1-4)GlcNAc(b1-4)]Man(a1-3)[GlcNAc(b1-4)][Neu5Ac(a2-6)Gal(b1-4)GlcNAc(b1-2)[Neu5Ac(a2-6)Gal(b1-4)GlcNAc(b1-6)]Man(a1-6)]Man(b1-4)GlcNAc(b1-4)GlcNAc
# Procedure, shortened: as §1
# [40] = biological target: Neu5Ac(a2-6)Gal(b1-4)GlcNAc(b1-2)[Neu5Ac(a2-6)Gal(b1-4)GlcNAc(b1-4)]Man(a1-3)[GlcNAc(b1-4)][Neu5Ac(a2-6)Gal(b1-4)GlcNAc(b1-4)Man(a1-6)]Man(b1-4)GlcNAc(b1-4)GlcNAc
# Procedure, shortened: as §1
# [41] = biological target: Neu5Ac(a2-6)Gal(b1-4)GlcNAc(b1-2)[Neu5Ac(a2-6)Gal(b1-4)GlcNAc(b1-6)]Man(a1-6)[Neu5Ac(a2-6)Gal(b1-4)GlcNAc(b1-2)Man(a1-3)][GlcNAc(b1-4)]Man(b1-4)GlcNAc(b1-4)GlcNAc
# Procedure, shortened: as §1
# [42] = biological target: Neu5Ac(a2-6)Gal(b1-4)GlcNAc(b1-3)Gal(b1-3)GlcNAc
# Procedure, shortened: as §1
# [43] = biological target: Neu5Ac(a2-6)Gal(b1-4)GlcNAc(b1-3)Gal(b1-4)GlcNAc
# Procedure, shortened: as §1
# [44] = biological target: Neu5Ac(a2-6)Gal(b1-4)GlcNAc(b1-3)Gal(b1-4)GlcNAc(b1-2)Man(a1-3)[Neu5Ac(a2-6)Gal(b1-4)GlcNAc(b1-3)Gal(b1-4)GlcNAc(b1-2)Man(a1-6)]GalNAc
# Procedure, shortened: as §1
# [45] = biological target: Neu5Ac(a2-6)Gal(b1-4)GlcNAc(b1-3)Gal(b1-4)GlcNAc(b1-3)Gal(b1-4)GlcNAc
# Procedure, shortened: as §1
# [46] = biological target: Neu5Ac(a2-6)Gal(b1-4)GlcNAc(b1-3)Gal(b1-4)GlcNAc(b1-3)Gal(b1-4)GlcNAc(b1-2)Man(a1-3)[Neu5Ac(a2-6)Gal(b1-4)GlcNAc(b1-3)Gal(b1-4)GlcNAc(b1-3)Gal(b1-4)GlcNAc(b1-2)Man(a1-6)]GalNAc
# Procedure, shortened: as §1
binder,measurement,setting,value
B1,glycan array binding signal (z-score),[1],-0.412
same,glycan array binding signal (z-score),[2],-0.321
same,glycan array binding signal (z-score),[3],-0.43
same,glycan array binding signal (z-score),[4],-0.185
same,glycan array binding signal (z-score),[5],-0.163
same,glycan array binding signal (z-score),[6],-0.217
same,glycan array binding signal (z-score),[7],-0.301
same,glycan array binding signal (z-score),[8],0.146
same,glycan array binding signal (z-score),[9],-0.358
same,glycan array binding signal (z-score),[10],0.695
same,glycan array binding signal (z-score),[11],0.37
same,glycan array binding signal (z-score),[12],0.029
same,glycan array binding signal (z-score),[13],-0.017
same,glycan array binding signal (z-score),[14],-0.177
same,glycan array binding signal (z-score),[15],-0.638
same,glycan array binding signal (z-score),[16],-0.261
same,glycan array binding signal (z-score),[17],-0.236
same,glycan array binding signal (z-score),[18],-0.061
same,glycan array binding signal (z-score),[19],-0.32
same,glycan array binding signal (z-score),[20],-0.267
same,glycan array binding signal (z-score),[21],0.085
same,glycan array binding signal (z-score),[22],-0.17
same,glycan array binding signal (z-score),[23],-0.281
same,glycan array binding signal (z-score),[24],-0.171
same,glycan array binding signal (z-score),[25],-0.212
same,glycan array binding signal (z-score),[26],0.2
same,glycan array binding signal (z-score),[27],-0.033
same,glycan array binding signal (z-score),[28],-0.253
same,glycan array binding signal (z-score),[29],-0.113
same,glycan array binding signal (z-score),[30],-0.309
same,glycan array binding signal (z-score),[31],0.007
same,glycan array binding signal (z-score),[32],0.176
same,glycan array binding signal (z-score),[33],-0.025
same,glycan array binding signal (z-score),[34],0.467
same,glycan array binding signal (z-score),[35],-0.321
same,glycan array binding signal (z-score),[36],-0.119
same,glycan array binding signal (z-score),[37],0.052
same,glycan array binding signal (z-score),[38],0.066
same,glycan array binding signal (z-score),[39],-0.168
same,glycan array binding signal (z-score),[40],0.333
same,glycan array binding signal (z-score),[41],-0.326
same,glycan array binding signal (z-score),[42],-0.141
same,glycan array binding signal (z-score),[43],-0.376
same,glycan array binding signal (z-score),[44],-0.223
same,glycan array binding signal (z-score),[45],-0.258
same,glycan array binding signal (z-score),[46],0.107

# — the supplement of paper PMC8728848
